Experimental data from PubChem BioAssay AID686978 (National Center for Advancing Translational Sciences (NCATS), 2013).
About 64,000 (15%) of roughly 420,000 compounds were called active. The shares of active, inactive and inconclusive entries below differ from those in the screen. The call rests on the fitted dose curve; in most records, active means well fitted inhibition curve with a large enough effect; inconclusive means small, poorly fitted or top-dose-only effect; inactive means flat fitted curve, though single readings scatter. Potencies of inconclusive entries are left out as doubtful fits.

test: qHTS for Inhibitors of human tyrosyl-DNA phosphodiesterase 1 (TDP1): qHTS in cells in absence of CPT; details: DT40 Tdp1-/- hTDP1 cells, no CPT, ATP luminescence, 48 h; activity change, negative = growth inhibition: at 46.2 µM (top of the series); further: nearly all actives have a fitted effect of over 55% in size
Procedure, shortened: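 Compound effects on proliferation are scored in DT40 Tdp1-/-;hTDP1 cells in the absence of CPT. ATP levels (CellTiter-Glo luminescence) are recorded after a ≥48 hr, 37 °C incubation.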
On the % scale 0 is the no-effect control and ±100 the full control effect; potency means the concentration at half of the fitted maximal effect; tags describe the fitted curve by direction and shape.

Q: Which Potency does the source give for `O=C(Nc1cccc(C(F)(F)F)c1)C1CCCN(S(=O)(=O)c2cccc3nonc23)C1` (centres undefined) here?
A: inconclusive [inhibitor, single point]

Q: For `COc1cc(=O)n2c(c1C(=O)N(C)Cc1cscn1)CCN(C(=O)c1ccc(C)cc1C)CC2`, which Potency is on record?
A: inactive

Q: For `COc1ccc(-c2csc(NC(=O)CS(=O)(=O)c3ccccc3)n2)cc1`, which Potency is on record?
A: active: 23.1 µM

Q: With `Cc1ccc(C(C(=O)NC(C)(C)C)N(Cc2cccs2)C(=O)c2csnn2)cc1` (centres undefined) as the compound, how does the Potency read?
A: inconclusive [inhibitor, single point]

Q: With `CCCn1c(CN2CCCCC2C)nc2c1c(=O)n(C)c(=O)n2C` (centres undefined) as the compound, how does the Potency read?
A: inconclusive [inhibitor, single point]

Q: With `COc1ccc(C(=O)C2CCN(CC(=O)NCc3ccccc3)CC2)cc1` as the compound, how does the Potency read?
A: inconclusive [inhibitor, partial curve]

Q: For `O=C(O)CNC(=S)N(Cc1ccccc1)Cc1ccccc1F`, which Potency is on record?
A: inactive

Q: Which activity change, negative = growth inhibition does the source give for `CSC[C@H]1CN(c2ccc(Br)cc2)C(=O)[C@@H]1CC(=O)Nc1ccc(Br)cc1` here?
A: inconclusive: -30.3% [inhibitor]

Q: For `CC(=O)c1ccc(OCc2cc(C(=O)NC(C)c3cnn(C)c3)no2)cc1` (centres undefined), which Potency is on record?
A: inactive

Q: For `COc1ccc(OC)c(C(=O)Cn2cnc3ccccc3c2=O)c1`, which Potency is on record?
A: inactive

Q: With `Cc1cc(C(=O)CSc2nc3ccccc3o2)c(C)n1CC1CCCO1` (centres undefined) as the compound, how does the Potency read?
A: active: 18.4 µM

Q: For `Cc1oc2c(C)c3oc(=O)c(CCC(=O)N4CCCCC4)c(C)c3cc2c1C`, which Potency is on record?
A: active: 10.3 µM

Q: Which Potency does the source give for `COc1ccc(CNC(=O)c2ccc(S(=O)(=O)N3CC(C)CC(C)C3)cc2)cc1OC` (centres undefined) here?
A: inconclusive [inhibitor, single point]

Q: Which Potency does the source give for `COc1cc(/C=N/NC(=S)NCc2ccccc2)ccc1OCC#N` here?
A: active: 23.1 µM

Q: With `COc1ccc(-c2ccnc(-c3ccncc3)n2)cc1` as the compound, how does the Potency read?
A: active: 16.4 µM

Q: With `CCNC(=S)NNC(=O)c1cc(C2CC2)nc2ccccc12` as the compound, how does the Potency read?
A: inactive

Q: Which Potency does the source give for `CCc1nnc(NC(=O)C(C)Sc2ccccc2)s1` (centres undefined) here?
A: inactive

Q: With `COc1cccc(CSc2nnnn2-c2ccc(O)cc2)c1` as the compound, how does the Potency read?
A: inconclusive [inhibitor, single point]

Q: With `OC(COCc1ccccc1)CN1CCc2ccccc2C1` (centres undefined) as the compound, how does the activity change, negative = growth inhibition read?
A: inconclusive: -31.8% [inhibitor]

Q: For `CCCc1nc(-c2ccc(-c3ccc(F)cc3)cc2)no1`, which Potency is on record?
A: inactive

Q: Which Potency does the source give for `O=C(CNc1cc(S(=O)(=O)N2CCOCC2)ccc1N1CCCC1)N1CCc2ccccc21` here?
A: inconclusive [inhibitor, partial curve, poor fit]

Q: For `O=C(NCCO)c1ccc(Cl)c(Cl)c1`, which Potency is on record?
A: inactive

Q: Which Potency does the source give for `CCCCN(Cc1cccs1)S(=O)(=O)c1csc(C(N)=O)c1` here?
A: inconclusive [inhibitor, single point]

Q: With `CC(=O)Nc1cc(C)c(S(C)(=O)=O)c(C)c1` as the compound, how does the Potency read?
A: inactive

Q: For `COC(=O)c1cccc(C23CC4(C2)[C@H](CN(CC2CCCCC2)[C@@H]4c2ccccc2)C3c2ccccc2)c1` (some centres undefined), which Potency is on record?
A: inconclusive [inhibitor, single point]

Q: With `O/N=C(/C[n+]1cccc(Br)c1)c1ccc2ccccc2c1` as the compound, how does the Potency read?
A: active: 12.6 µM

Q: Which Potency does the source give for `COc1ccc(-c2noc(-c3ccc(NCCc4ccccc4)c([N+](=O)[O-])c3)n2)cc1` here?
A: inactive

Q: With `COc1ccc(C(=O)Nc2cc(-c3ccccc3)nn2-c2ccccc2F)cc1` as the compound, how does the Potency read?
A: inconclusive [inhibitor, single point]

Q: Which activity change, negative = growth inhibition does the source give for `Cc1ccc(NC(=O)CCn2c(=S)oc3ccccc32)cc1F` here?
A: inconclusive: -33% [inhibitor]

Q: With `O=C(Nc1cc(C(=O)N2CCN(c3ccccc3)CC2)ccc1Cl)c1cccs1` as the compound, how does the Potency read?
A: inconclusive [inhibitor, single point]

Q: For `ON=C1c2cc(OCCN3CCCCC3)ccc2-c2ccc(OCCN3CCCCC3)cc21`, which Potency is on record?
A: active: 8.2 µM

Q: With `Brc1ccc(-c2noc3c2-c2nc(C4CCCCC4)sc2CC3)cc1` as the compound, how does the Potency read?
A: inactive

Q: Which Potency does the source give for `CCOCCCn1c(=S)[nH]c2cc(C(=O)N3CCN(C4CCCCC4)CC3)ccc2c1=O` here?
A: inconclusive [inhibitor, partial curve]

Q: For `CCn1c(COc2ccccc2)nnc1SCC(=O)Nc1cc(C)ccc1OC`, which Potency is on record?
A: inconclusive [inhibitor, single point]

Q: For `CC(CCn1cccn1)NC(=O)CCc1nnc(CCc2ccccc2)o1` (centres undefined), which Potency is on record?
A: inactive

Q: For `COc1ccc(S(=O)(=O)N2CCCCC2)cc1NCC(=O)Nc1ccc(C)cc1`, which Potency is on record?
A: active: 9.2 µM

Q: Which Potency does the source give for `C=CCN1C(=O)c2ccc(C(=O)N(CC)CC(=O)Nc3ccc(OC)cc3)cc2C1=O` here?
A: inactive

Q: For `CC(C)CNC(=O)N1c2ccccc2Sc2ccccc21`, which Potency is on record?
A: inconclusive [inhibitor, single point]

Q: For `O=[N+]([O-])c1ccc(CSc2nnc(-c3cccnc3)o2)cc1`, which Potency is on record?
A: inconclusive [inhibitor, single point]

Q: With `CCN1CCN(c2ccc(S(=O)(=O)N3CCOCC3)cc2NC(=O)c2sccc2C)CC1` as the compound, how does the Potency read?
A: inactive

Q: Which Potency does the source give for `O=C1CN(S(=O)(=O)c2ccc(Cl)cc2)c2ccccc2N1` here?
A: inactive

Q: With `Cc1ccc(Cl)c(NC(=O)CN2C(=O)C(C)N(c3ccc(F)cc3)C2=O)c1Cl` (centres undefined) as the compound, how does the Potency read?
A: inconclusive [inhibitor, single point]

Q: Which Potency does the source give for `CCc1nc2ccc(C(=O)Nc3ccc(NC(C)=O)cc3)cn2c1N(C)C(=O)Cc1ccccc1` here?
A: inconclusive [inhibitor, partial curve]

Q: Which activity change, negative = growth inhibition does the source give for `O=C(Nc1ccc(Cl)cc1F)c1ccc2c(c1)C(=O)N(Cc1ccncc1)C2=O` here?
A: inconclusive: -32.6% [inhibitor]

Q: With `O=C(CCC(=O)N1CCN(c2ccccn2)CC1)c1cccs1` as the compound, how does the Potency read?
A: inactive

Q: Which Potency does the source give for `O=C(NCCc1ccccc1)C1CCN(C(=O)c2sccc2-n2cccc2)CC1` here?
A: inconclusive [inhibitor, single point]

Q: Which Potency does the source give for `NC(Cc1ccccc1)C(O)(c1ccccc1)c1ccccc1` (centres undefined) here?
A: inconclusive [inhibitor, single point]

Q: With `CCOc1ccccc1N1CCN(c2nc3ccccc3nc2C(C#N)C(=O)OC)CC1` (centres undefined) as the compound, how does the Potency read?
A: active: 14.6 µM

Q: With `O=C(Cn1c(-c2ccccc2)c[n+]2ccsc12)c1ccc(Br)cc1` as the compound, how does the Potency read?
A: active: 3.26 µM
